Experimental data reported in publication PMC4336329 (PLoS ONE, 2015).
The whole screen tested about 310,000 compounds, of which about 2,200 (0.71%) showed an effect of 50% or more. The effect is printed as a negative number. Some of the results follow.

These compounds were tested against human ether-à-go-go-related gene (hERG) potassium channel (human, UniProt Q12809) (assay: primary screen, population patch clamp on CHO cells stably expressing hERG).
Chain of human ether-à-go-go-related gene (hERG) potassium channel (Q12809 whole entry, looked up): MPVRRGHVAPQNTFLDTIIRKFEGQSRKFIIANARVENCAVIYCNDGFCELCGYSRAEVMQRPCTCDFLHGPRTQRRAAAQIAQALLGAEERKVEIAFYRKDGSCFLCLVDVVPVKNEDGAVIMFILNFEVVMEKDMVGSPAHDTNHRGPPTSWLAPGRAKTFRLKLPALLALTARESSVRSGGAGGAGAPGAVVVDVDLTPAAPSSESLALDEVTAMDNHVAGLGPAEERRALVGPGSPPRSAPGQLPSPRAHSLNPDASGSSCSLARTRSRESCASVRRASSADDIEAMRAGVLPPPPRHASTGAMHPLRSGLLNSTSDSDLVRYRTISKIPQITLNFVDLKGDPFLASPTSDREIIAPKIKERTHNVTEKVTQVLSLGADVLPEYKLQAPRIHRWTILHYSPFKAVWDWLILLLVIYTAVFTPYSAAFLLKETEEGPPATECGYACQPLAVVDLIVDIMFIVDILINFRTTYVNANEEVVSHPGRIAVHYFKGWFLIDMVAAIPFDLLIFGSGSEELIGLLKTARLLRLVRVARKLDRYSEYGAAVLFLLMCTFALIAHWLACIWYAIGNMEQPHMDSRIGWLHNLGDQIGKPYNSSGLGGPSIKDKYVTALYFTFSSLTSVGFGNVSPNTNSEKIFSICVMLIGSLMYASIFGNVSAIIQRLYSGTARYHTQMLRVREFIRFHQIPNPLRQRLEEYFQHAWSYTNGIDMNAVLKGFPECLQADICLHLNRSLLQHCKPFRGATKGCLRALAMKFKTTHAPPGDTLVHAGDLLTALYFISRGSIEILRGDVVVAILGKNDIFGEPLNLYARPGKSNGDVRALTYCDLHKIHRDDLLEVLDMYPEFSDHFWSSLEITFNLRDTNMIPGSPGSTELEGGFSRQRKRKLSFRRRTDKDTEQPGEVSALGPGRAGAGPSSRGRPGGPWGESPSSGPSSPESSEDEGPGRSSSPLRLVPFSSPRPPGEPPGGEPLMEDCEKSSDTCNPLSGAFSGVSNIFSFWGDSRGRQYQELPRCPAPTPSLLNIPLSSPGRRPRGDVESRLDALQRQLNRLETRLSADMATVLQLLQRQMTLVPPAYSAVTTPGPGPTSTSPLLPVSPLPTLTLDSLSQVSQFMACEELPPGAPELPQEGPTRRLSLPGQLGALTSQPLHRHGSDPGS

Row | SMILES | hERG current change (%, negative = inhibition) at 1uM [%]
1 | CCN(CC)CCCN=C(C)c1c(O)n(-c2ccc(C)cc2)c(=O)[nH]c1=O | 19.1
2 | COC(=O)c1cccc([N+](=O)[O-])c1CN1CCCC(C(N)=O)C1 (centres unmarked) | 11
3 | O=C(CSc1nnc(-c2ccc(Cl)cc2)n1-c1ccc(Cl)cc1)N/N=C/c1ccccc1C(=O)O | 13.4
4 | Cc1ccn2c(=O)nc(SCC(=O)OCc3ccccc3)nc2c1 | 15.2
5 | N#CCOc1nc(N2CCOCC2)nc(N2CCOCC2)n1 | 9.71
6 | CCN1C(=O)[C@H]2[C@@H](c3ccc(-c4ccccc4)c(OC)c3)N[C@@](Cc3ccccc3)(C(=O)OC)[C@H]2C1=O.O=C(O)C(F)(F)F | 13.6
7 | CCOc1ccc2ccccc2c1/C=N/NC(=O)c1ccncc1 | 13.4
8 | Cc1cccc2c(N=O)c(O)[nH]c12 | 16.6
9 | Cc1cc(N=Nc2ccccc2C)ccc1N | 10.4
10 | CCOC(=O)c1[nH]c2ccc(OC)cc2c1NC(=O)CN1CCN(c2ccccn2)CC1 | 1.35
11 | O=C(NCCS(=O)(=O)N1CCC2(CC1)OCCO2)c1ccccc1 | 3.36
12 | Cc1cc(N2CCC(C)CC2)nc(-n2nc(C)cc2C)n1 | -9.09
13 | O=C(N/N=C/c1cc(Br)cs1)C(O)c1ccccc1 (centres unmarked) | 12.7
14 | COc1ccc2cc3cc(C(=O)NCCc4ccc(OC)c(OC)c4)oc3nc2c1 | 10.8
15 | O=C(c1cccc(Cl)c1)N1CCC(c2nc3ccccc3[nH]2)CC1 | -0.145
16 | CC(C)(C)C(=O)Nc1nc2ccc(S(C)(=O)=O)cc2s1 | 4.4
17 | NNC(=O)COc1ccc(F)cc1 | 15.7
18 | CN1C(=O)c2ccc(C(=O)Nc3ccccc3O)cc2C1=O | 8.08
19 | COc1ccc(N2Cc3cccc(C(=O)N4CCN(C(=O)c5ccco5)CC4)c3C2=O)cc1 | -10.4
20 | COC(=O)c1ccccc1N=Nc1c(C)noc1C | 4.87
21 | C1=C(CCNc2ncnc3nc[nH]c23)CCCC1 | 1.12
22 | O=C1CC(c2cc(Br)ccc2F)c2cc3c(cc2N1)CCC3 (centres unmarked) | -8.79
23 | NC(=O)c1ccc(N=Cc2ccc([N+](=O)[O-])s2)cc1 | 14.1

Row | SMILES | hERG current change (%, negative = inhibition) at 1uM [%]
24 | CC1CC(N(C(=O)c2ccccc2Cl)c2ccccc2)c2ccccc2N1 (centres unmarked) | 15
25 | CN(CC(=O)NC1CCCCC1)S(=O)(=O)c1ccc2c(c1)c(=O)n(C)c(=O)n2C | 9.65
26 | Cc1cc(N/N=C/c2ccccc2F)c2ccccc2n1 | 19.7
27 | C/C(=C\C(=O)c1ccncc1)Nc1ccccc1O | -3.63
28 | COc1cc(C2N(Cc3ccccc3)CCN2Cc2ccccc2)ccc1OC(C)=O | 10.4
29 | COc1ccc(CN2CCNC(=O)C2CC(=O)N(C)CC2CCOCC2)cc1OC (centres unmarked) | 14.7
30 | Cc1ccc(-c2c(C)sc3ncn(CC(=O)N4CCOCC4)c(=O)c23)cc1C | 6.2
31 | O=C1/C(=C/c2cccs2)SC(=S)N1C1CCS(=O)(=O)C1 (centres unmarked) | 4.85
32 | COc1ccc(CN2C=C3C(=O)C(C)(OC(=O)CCc4ccccc4)C(=O)C=C3C=C2c2ccc(C#N)cc2)cc1 (centres unmarked) | 9.8
33 | CC(CC(=O)O)CC(=O)NNC(=O)c1cccc(Br)c1 (centres unmarked) | 8.72
34 | CCCCC1CCC(C(=O)NCc2ccc3c(c2)OCO3)CC1 (centres unmarked) | 5.65
35 | CCN1CCN(C(=S)NC(C)c2ccccc2)CC1.O=C(O)C(=O)O (centres unmarked) | 4.8
36 | COc1ccc2c(c1)c(CC(=O)Nc1nnc(C3CC3)s1)c(C)n2C(=O)c1ccc(Cl)cc1 | 17.8
37 | CSc1ccc(S(=O)(=O)NCC(=O)OCC(=O)NCc2ccco2)cc1[N+](=O)[O-] | -8.64
38 | COc1ccc(C(=O)CSc2nc(C)cc(=O)[nH]2)cc1 | 17
39 | CC[C@@H](C)[C@H](NC(=O)Cc1c(C)c2c(cc(C)c3c(C)c(C)oc32)oc1=O)C(=O)O | 5.12
40 | O=C(CN1CCOCC1)Nc1ccc(Cl)c(Cl)c1.O=C(O)C(=O)O | 5.44
41 | Cc1cnc(NC(=O)c2ccc(OCC3CCCO3)cc2)s1 (centres unmarked) | 14.7
42 | O=C(O)C1CCCN(S(=O)(=O)c2ccc(F)cc2)C1 (centres unmarked) | 0.929
43 | Cc1sc2ncnc(SCC(=O)N(C)C3CCS(=O)(=O)C3)c2c1C (centres unmarked) | 1.14
44 | CCN(CC)C(=O)C(=O)c1ccn(-c2c(C)csc2C(=O)OC)c1 | 7.53
45 | N#Cc1ccc(Cn2c(-c3ccc(F)cc3)noc2=O)cc1 | 8.42
46 | Cc1cc([N+](=O)[O-])nn1CCCC(=O)O | 11.2

Row | SMILES | hERG current change (%, negative = inhibition) at 1uM [%]
47 | O=C(CCc1c[nH]c2ccccc12)NC1CC1 | 13.5
48 | CC1CCN(S(=O)(=O)c2ccc(NC(=O)C3CC3)cc2)CC1 | 10.7
49 | CSc1cccc(NC(=O)CCCNC(=O)c2ccc(Cl)cc2)c1 | 10.6
50 | Cn1cccc/c1=N\c1cccc[n+]1C.[I-] | 17.6
51 | COc1ccc(-n2c(SCC(=O)Nc3ccc(C(N)=O)cc3)nc3ccccc3c2=O)cc1OC | 13.1
52 | O=C(CN1C2CCCC1CC(NC(=O)c1ccccc1)C2)Nc1nccs1 (centres unmarked) | -11.8
53 | O=Cc1cn(Cc2ccc(F)cc2)c2ccccc12 | 14.4
54 | CCN(CC)S(=O)(=O)c1ccc2oc(Nc3ccc4c(c3)OCCO4)nc2c1 | 2.77
55 | Cc1ccc(-n2cccn2)c(CN2CCCC(CNC(=O)c3ccc(F)cc3)C2)c1 (centres unmarked) | -78.9
56 | O=S(=O)(Nc1nc2ccccc2nc1Cl)c1cccc(C(F)(F)F)c1 | 10.1
57 | Cc1csc(NC(=O)c2cc3c(s2)CCCC3)n1 | -5.16
58 | CCOc1ccc(CCNC(=O)c2cc3c(C)nccc3[nH]c2=O)cc1OCC | 3.36
59 | CCN(C(=S)Nc1cccnc1)c1cccc2ccccc12 | 14.5
60 | COc1ccc(-c2nnc(SC(C)C#N)o2)cc1 (centres unmarked) | -7.28
61 | COc1ccc(/C=N/Nc2ccc([N+](=O)[O-])cc2)cc1O | 5.91
62 | COc1ccc(O[C@@H]2O[C@H](COC(C)=O)[C@@H](OC(C)=O)[C@H](OC(C)=O)[C@H]2NC(C)=O)cc1 | 2.34
63 | O=C(COC(=O)CCc1nc2ccccc2c(=O)[nH]1)Nc1ccc2c(c1)OCO2 | 8.77
64 | COc1ccc(/C=N/NC(=O)c2cccc(COCC(F)(F)C(F)F)c2)cc1 | 0.208
65 | O=C(c1ccc2c(c1)OCO2)C1CCCN(Cc2ccc3nsnc3c2)C1 (centres unmarked) | -34.9
66 | O=C(NCC1COc2ccccc2O1)c1ccc(Cl)c(S(=O)(=O)N2CCCC2)c1 (centres unmarked) | 1.75
67 | CCCCN(C(=O)CN1CCOCC1)c1c(N)n(CC(C)C)c(=O)[nH]c1=O | 9.94
68 | Cc1cccc(C)c1NC(=O)C1CCCN1C(=O)Nc1cccc(F)c1 (centres unmarked) | 0.848
69 | Cc1ccc2nc(C)c(C)nc2c1N | 4.2

Row | SMILES | hERG current change (%, negative = inhibition) at 1uM [%]
70 | Cc1ccc(NC(=S)NCCc2c[nH]c3ccccc23)cc1 | 2.78
71 | COc1cccc(/C(O)=C/c2nc3ccc(C(=O)NCCc4cccc(C)c4)cc3[nH]c2=O)c1 | 15.2
72 | COc1ccc(NC(=O)C2CCCN2C(=O)OC(C)(C)C)cc1 (centres unmarked) | 12.3
73 | COc1ccc(CCN2C(=O)CC(Cc3ccccc3)C2=O)cc1OC (centres unmarked) | 0.263
74 | C=CCn1c(NS(=O)(=O)c2ccccc2)c(S(=O)(=O)c2ccc(C)cc2)c2nc3ccccc3nc21 | 2.37
75 | O=C(c1ccco1)N1CCN(C(=O)c2ccc(COc3ccc(Cl)cc3Cl)o2)CC1 | -22.3
76 | C=C(C)C1CC=C(C)/C(=N\NC(=O)CCc2ccccc2)C1 (centres unmarked) | 13.6
77 | COC(=O)/C=C/c1ccc2c(c1)S(=O)(=O)N(c1cccc(OC)c1)[C@H]2CC(=O)OC | 14.1
78 | O=C1C(Cl)=C(N2CCOCC2)C(=O)N1c1ccccc1F | 15.7
79 | O=[N+]([O-])c1ccc(Cl)c(/C=N/n2c(COc3ccccc3)n[nH]c2=S)c1 | 8.05
80 | C=CCOc1c(CNc2ncn[nH]2)cccc1OCC | -2.26
81 | O=C(CCc1ccccc1)c1c(O)cc(O)cc1O | 11.5
82 | Br.CC1=C(c2ccccc2)SC2=NCCN21 | 6.79
83 | Cc1nn(C)c2ncc(C(=O)c3ccccc3O)cc12 | 13.6
84 | O=C(NCC1CCCO1)C1CCCCN1S(=O)(=O)c1ccc(F)cc1 (centres unmarked) | 5.84
85 | Cc1ccnc(SCC(=O)c2ccc([N+](=O)[O-])cc2)n1 | -3.06
86 | CCc1nc(N2CCN(S(=O)(=O)c3ccc(Br)cc3)CC2)c2c(C)c(C)sc2n1 | 1.18
87 | Cc1cccc(-n2c(-c3ccco3)nc3nc4ccccc4nc32)c1 | 4.84
88 | CCOc1ccc(S(=O)(=O)NCCC(=O)N2CC(C)OC(C)C2)cc1 (centres unmarked) | 13.5
89 | O=C(c1cc2ccccc2oc1=O)N(c1ccccc1)C1C=CS(=O)(=O)C1 (centres unmarked) | 4.42
